Test results reported in the supplement of paper PMC10126150.
Sequences with one replicate were seen in a single cluster, so their values are uncertain.

Tested on: ATP
Assay: switch fluorescence ratio, 500 uM ATP over buffer (Cy3 cluster intensity, sum of 5 cycles each) (fold (ratio)); higher = stronger signal-on switching upon ATP binding; sequences stand for … in TCGTCGGCAGCGTCAGATGTGTATAAGAGACAGTTTTTTTTTTTTTTTTTTTTTTTTT…TC
Conditions: aptamer strand: ATP DNA aptamer (quencher-CACCTGGGGGAGTATTGCGGAGGAAGG + anchor), 100 nM annealed; ATP concentration: 500 uM; one replicate
Procedure, shortened: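 The quencher-labelled ATP aptamer, at 100 nM, was annealed to Cy3-labelled switching-strand clusters on a modified Illumina MiSeq flow-cell. The clusters were imaged in selection buffer, then after 15 min with 500 uM ATP at 22 °C, and this buffer/ATP cycle ran five times with NaOH stripping and re-annealing between runs. Per-cluster fluorescence ratios, summed target-cycle over summed buffer-cycle Cy3 intensity, were averaged per switch-domain sequence. Clusters outside 100-1000 RFU were excluded.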
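Note: ATP exposure 15 min at 22 °C before imaging.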

Sequence | switch fluorescence ratio
GTGTGTCCCG | 0.953
ACGCTCCACC | 1.15
ATCCGAACCC | 1.11
AGGTTCAGCC | 1.02
GGCCGTACTG | 1
TCATTGTGAT | 0.993
CTCTGGCGCT | 1.06
CTCAACGATG | 1.02
TTGCGAGTAA | 1.03
CACGTGGAAC | 1.04
TGAATTCAGA | 0.974
TAGTGTTTG | 1
TCTTGAAATG | 1.04
GGAGCCGGTG | 1.03
CGTAGACATG | 1
ACTGGTTCTG | 0.972
AGGCCGTATG | 0.955
TTGCAGTTCT | 1.09
GCATTAATTG | 0.989
GCCTCTAGCG | 1.08
AAGATCGTCA | 0.965
CCGCGTCGCG | 1.01
CACCGGTTGA | 1.03

Sequence | switch fluorescence ratio
GGTAATAGTC | 1.08
GCGTCTGGGT | 1.01
CCTTGGTATG | 1.01
ATACGGTGAC | 1.24
GCAAAATGC | 1
TTTTCCTGCC | 1.53
CGTCCAGGTT | 1.02
TTTGTTCCAC | 1.04
TTGTAAGGTA | 1.02
ACACATGCCT | 1.05
TCCCCACCTA | 0.979
CTGAGCCAGC | 1.03
AGGTGTTGTC | 0.873
AAAATTTATC | 1
ACGAACTTTT | 1.22
GTGCTATTAA | 1.02
ACTCATCCTG | 1.16
CTGTGAGCTA | 1.41
CGCGTTAATG | 1.02
CGACTTTTTA | 0.996
TAGTATAGAT | 0.968
GGGGGCAGCG | 0.991
ACGGGCCTGC | 1.09

Sequence | switch fluorescence ratio
TGACACTAG | 1.06
TTACTATATA | 1.09
TGTTGATGTG | 0.961
CATTTCGGTA | 1.01
AGTCTTTGTG | 0.957
GTGTTAAGAA | 1.02
GATTACCTTC | 1.44
ACCCTCTTGG | 1.83
TCGGGGGCCG | 0.993
ATGCAACTGA | 1.02
CTAAGAAAGT | 0.965
TTCGGAGACG | 0.95
AGGTCTTTAC | 1
TGCTTGAAGG | 1.04
ATTTAGACAT | 0.997
AATCGACTCG | 0.986
CGATGTTCTA | 1
AATGAGTTAG | 1
AGAGCGGGTC | 0.933
CGGGACAGGA | 1
CTAGGGGGCT | 1.09
TTTCGAAT | 0.98
TTATCACGCT | 1.06

Sequence | switch fluorescence ratio
CGTCGCTTCT | 1.04
TCATAGCATC | 1.48
ATTTGCGTGT | 0.995
TTAACGGATG | 1.01
TGTAGGGCCA | 0.978
TTCATGGGAC | 0.995
ATGTTCAACC | 1.02
TAGATGAACT | 1.02
GAGCAAGGCG | 1.02
TGATGTCATA | 0.968
ACTCAGAGAA | 1
GCCTCGGCAT | 1.16
GGGTGGTGCG | 0.999
ACAGTGATCT | 1.09
ATCCGACGGG | 1.12
GCGTCATTGC | 1.16
GAGAAGGCAG | 0.987
TAATGTTCAG | 0.999
TTTAGACCGA | 1.03
CTGTGTGTAG | 1.03
CAGGCAGGTG | 2.74
ACAGATCTCG | 1.07
AGGTGTTTG | 1.04

Sequence | switch fluorescence ratio
TTTTTACGCC | 1.03
TCTCTAGGGC | 1.08
TAGGGCGGCC | 1.04
GATCAGTTAG | 1.02
GGGTGTTCCC | 1
CGATCGTACG | 0.999
CGGCCTT | 1.06
CTGTGTAGTT | 1
GTCGATACTT | 1.05
ACCGGGGCGC | 1.24
CACTTCATCT | 1.02
TGACCCCGG | 0.993
GTCACTGGTA | 0.998
AATTCGAGGA | 1.01
TGGTAGTGAG | 1.01
CACCTTACAT | 1.24
AAGTTATTTC | 1.03
GTTCATCTC | 0.994
AGTCCACCCA | 1.09
CCTAGCCATT | 1.18
TGAGTCGGGG | 0.994
AAGCTAACTC | 1.3
ATGACCCCGC | 1.28

Sequence | switch fluorescence ratio
TTTCAGTAGG | 0.995
CCGCGTATAA | 2.7
CGTTGAACTG | 1.03
GAGGAGATGG | 1.01
AAGGGTAGTG | 1.02
GCAGAACCTA | 1.04
AGACAAGCTC | 1.03
CGGTGGGTTT | 0.991
ACTTTCTTGC | 1
TACACCTAGA | 1.1
CCTCTTGATT | 1.07
TCGGCTCCGT | 1.03
GGGAGAGA | 1.03
CAATGGCGC | 1.03
ACCGTTTTAG | 1.04
AGTTACGAGT | 1.01
TTTCTCTTTA | 0.975
TAAAGCTCGT | 1.01
GCCACTCCTG | 1.08
GACTGCTAAG | 1.15
GGCAGCTTGA | 1.02
TACTTGAGG | 1.02
GATTCTAATT | 0.99

Sequence | switch fluorescence ratio
GCAGCACCAT | 1.12
AATTATAGAG | 1
AACAGGGTGA | 1.03
ATGAGCACGG | 1.01
GGGATGGCGG | 0.965
ACTATTCGTT | 1.03
GCAATTGCGC | 1.03
CATTTATGTT | 1.01
CCCATGGGGA | 1.06
TTTAACCGCT | 1.2
GTGACGGTGT | 1.04
CTCATCGGCA | 1.27
GAGCAGGCGT | 0.961
CAGGAGCTTG | 1.06
GTGTCATGTT | 0.975
CAAGCTGCGC | 0.944
AGGCATGCC | 1.03
GGCAACCGGG | 1.05
TATTAAGGT | 1.02
